Measurements from publication PMC7819943, “Rice protein-binding microarrays: a tool to detect cis-acting elements near promoter regions in rice”.
Some of the results follow.

The sequences below were run against T1, OsWOX13 (Oryza sativa, UniProt Q5QMM3 1-267) (assay: protein-binding microarray (RPBM); PBS, 2% BSA, 51.3 ng/ul salmon testes DNA, 50 uM zinc acetate, 200 nM TF, 25 C, 1 h; high values mean tight binding). Settings: protein: recombinant; tags: N-terminal polyhistidine and DsRed monomer fusion (pET32a); label: CyDye5-dUTP incorporated in the synthesized complementary strand; 3' TTTTT single-stranded linker to array surface; dsDNA, one strand shown.
T1 sequence: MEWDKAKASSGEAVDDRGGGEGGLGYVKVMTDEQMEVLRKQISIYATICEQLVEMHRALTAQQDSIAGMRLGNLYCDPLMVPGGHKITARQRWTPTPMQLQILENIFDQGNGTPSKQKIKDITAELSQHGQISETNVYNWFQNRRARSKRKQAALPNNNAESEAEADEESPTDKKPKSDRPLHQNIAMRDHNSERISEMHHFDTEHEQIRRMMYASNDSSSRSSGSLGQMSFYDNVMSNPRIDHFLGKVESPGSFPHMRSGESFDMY
Procedure, shortened: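 Polyhistidine-tagged DsRed fusions of transcription factors, joined at the N-terminus, were expressed in E. coli BL21-CodonPlus and isolated on Ni–NTA. They were incubated at 200 nM for 1 h at 25 °C on a custom Agilent array, double-stranded and BSA-blocked, in PBS with 2% BSA, salmon testes DNA and 50 µM zinc acetate. The binding signal is per-feature fluorescence intensity (arbitrary units) read on an Axon 4000B scanner after washing.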
In the case of “TCACTTTGATTATCGTAATCTACCGTGATCCGAGCTGAAACGGAGTCACCTAGTGCAG”, the binding signal is reported as 12400 fluorescence intensity (a.u.).
With “GCTGATTGATTCATTCTGATCTGAACATATAGACAACCATCGGAGTCACCTAGTGCAG” the binding signal was 54700 fluorescence intensity (a.u.).
In the case of “GTTAATTGAATACGTGCTTGCACGTCTTGTATTACAAAACCGGAGTCACCTAGTGCAG”, the binding signal is reported as 25300 fluorescence intensity (a.u.).
In the case of “CAATAATTATCTATAAGCATATACTACACCATTAATATATCGGAGTCACCTAGTGCAG”, the binding signal is reported as 19500 fluorescence intensity (a.u.).
“ATACAAATTTTCCATGTAATCATATGAATTAGTTCCAGAACGGAGTCACCTAGTGCAG” was tested, and the binding signal was 4820 fluorescence intensity (a.u.).
“CCCAGAGAGTTAATTACTGTGGTTGGGTGGCAGTTACTGCCGGAGTCACCTAGTGCAG” was tested, and the binding signal was 3360 fluorescence intensity (a.u.).
For “CTGTAGACTGGCTGACTGGGGATTAATCAGTTCTCACATGCGGAGTCACCTAGTGCAG”, the binding signal was 19000 fluorescence intensity (a.u.).
“CCTTGGTAATAATTTGCTCAGTGATGCAAATCAAACTGGGCGGAGTCACCTAGTGCAG” was tested, and the binding signal was 10600 fluorescence intensity (a.u.).
“CCTCTGGATTGAACGGCAGGAGATACCTAAGCTAGCTAGCCGGAGTCACCTAGTGCAG” was tested, and the binding signal was 3220 fluorescence intensity (a.u.).
For “AATATTAATTTGGATTCAAACTTCCTTCTTCAAATATCTTCGGAGTCACCTAGTGCAG”, the binding signal was 14100 fluorescence intensity (a.u.).
“TTTGATGATAAATCAAGTTAAAATAAAATAAATGATATTACGGAGTCACCTAGTGCAG” was tested, and the binding signal was 8320 fluorescence intensity (a.u.).
“CTAATTTGTCAATCCATTTTCATCCAAGTATATCCAATTCCGGAGTCACCTAGTGCAG” was tested, and the binding signal was 30100 fluorescence intensity (a.u.).
For “TGTGACTGAAAAGTTGTGTGTGTATGACAGGTTGATGTGACGGAGTCACCTAGTGCAG”, the binding signal was 9260 fluorescence intensity (a.u.).
“AATTGATTAAGATGATGATGAAAGATAATACAGCTCGATCCGGAGTCACCTAGTGCAG” was tested, and the binding signal was 27100 fluorescence intensity (a.u.).
“ATAATTAACAGCATCTCTAACGCAATGGGGTTGCTTCTTGCGGAGTCACCTAGTGCAG” was tested, and the binding signal was 30500 fluorescence intensity (a.u.).
For “CTTAACGGCTGTGATTGATTGACGGTGTGATGTATACATACGGAGTCACCTAGTGCAG”, the binding signal was 39600 fluorescence intensity (a.u.).
In the case of “GGTGATGAGTGGTGGGGAGAAGGATGGCTACCAACTTGGACGGAGTCACCTAGTGCAG”, the binding signal is reported as 3730 fluorescence intensity (a.u.).
“TGCGATTGATTCGGTATTAGAGCCTGCATACGTGTCATCTCGGAGTCACCTAGTGCAG” was tested, and the binding signal was 20500 fluorescence intensity (a.u.).
“TTATAATTGACATGAGTGTTCGTATTTACACATAATTATTCGGAGTCACCTAGTGCAG” was tested, and the binding signal was 26300 fluorescence intensity (a.u.).
With “CTAATAACAAAATAAATTACAGAATCCGTCTATAAACCGCCGGAGTCACCTAGTGCAG” the binding signal was 8520 fluorescence intensity (a.u.).
With “TTTTCTTAATTACAGGTGGAATTAATCAGCTGTGGTGTGACGGAGTCACCTAGTGCAG” the binding signal was 10200 fluorescence intensity (a.u.).
“ATTAACTTGACCACTAATTCACTGTCTTAAATTACTGCTGCGGAGTCACCTAGTGCAG” was tested, and the binding signal was 8000 fluorescence intensity (a.u.).
With “AGATATTCAATTAACTATATACCGTATCTCTCTTCGTTTTCGGAGTCACCTAGTGCAG” the binding signal was 13400 fluorescence intensity (a.u.).
In the case of “ACCTGTAGATTTTATGATTAGGTGAGCATATTTTATATGTCGGAGTCACCTAGTGCAG”, the binding signal is reported as 9800 fluorescence intensity (a.u.).
For “GATGATGTGACAGGACGCGTGAAGTGTGGGCCATAGACAACGGAGTCACCTAGTGCAG”, the binding signal was 17000 fluorescence intensity (a.u.).
In the case of “AAATTAAATTGCCCGGATCAATGGCTACAAATACCCCATGCGGAGTCACCTAGTGCAG”, the binding signal is reported as 15200 fluorescence intensity (a.u.).
“CCTCCTGCATCGTCAAATCATGATGGATTGTTATTGGACCCGGAGTCACCTAGTGCAG” was tested, and the binding signal was 6050 fluorescence intensity (a.u.).
For “GCAATGATTATTCTAAACATGAACTTACTTTGACACAAATCGGAGTCACCTAGTGCAG”, the binding signal was 26400 fluorescence intensity (a.u.).
“AGGGTGATTGACAGGTGGGTCCATCCCCTCACATGCCAGGCGGAGTCACCTAGTGCAG” was tested, and the binding signal was 64800 fluorescence intensity (a.u.).
With “TGCATGAACAAATTGATCACAAGGTATGGTATGGTATGATCGGAGTCACCTAGTGCAG” the binding signal was 7540 fluorescence intensity (a.u.).
For “CGCTGACAGGTGGGCCCCAGGGTACGCGTCTCCCGCTGCGCGGAGTCACCTAGTGCAG”, the binding signal was 11900 fluorescence intensity (a.u.).
In the case of “GAAGAGATCAATCACTCCGTTGGTTTTAAGTCACTACGAACGGAGTCACCTAGTGCAG”, the binding signal is reported as 3860 fluorescence intensity (a.u.).
In the case of “ATTACCTATTATTGCTTGTTACTTATTACTTCCCTTTAGTCGGAGTCACCTAGTGCAG”, the binding signal is reported as 5020 fluorescence intensity (a.u.).
For “GAGGGGATCGATTCGATTGATTTGCCAACCACAAGCTACTCGGAGTCACCTAGTGCAG”, the binding signal was 5390 fluorescence intensity (a.u.).
In the case of “CAAAGTGACAAATTAATGCACGATTAATTAAGTATTAGCTCGGAGTCACCTAGTGCAG”, the binding signal is reported as 17900 fluorescence intensity (a.u.).
In the case of “ACCAAGATTGACCTCAAGTCACCTGCACACAATCAGACAACGGAGTCACCTAGTGCAG”, the binding signal is reported as 15500 fluorescence intensity (a.u.).
“CCAAACTGTCATCCATCCGCATCACCTCACCGGTATAAAGCGGAGTCACCTAGTGCAG” was tested, and the binding signal was 3250 fluorescence intensity (a.u.).
With “CACGTTTATCTTTATTTGATTGAATAATATTATAATATAGCGGAGTCACCTAGTGCAG” the binding signal was 20800 fluorescence intensity (a.u.).
With “CTAATACTTAATTAATCACGCGCTAATAAACCGCTCCGTTCGGAGTCACCTAGTGCAG” the binding signal was 28100 fluorescence intensity (a.u.).
For “AGAATAATTGTATTATCTCGATATAATTGACTGAGTTCGACGGAGTCACCTAGTGCAG”, the binding signal was 25200 fluorescence intensity (a.u.).
“CTAGATTACAATAAATTTTAAATGGAAACAAACAGGCCGTCGGAGTCACCTAGTGCAG” was tested, and the binding signal was 30100 fluorescence intensity (a.u.).
“ATTAACTATAATTATCGGCTGCAATCTAATTCGAATGTAGCGGAGTCACCTAGTGCAG” was tested, and the binding signal was 30300 fluorescence intensity (a.u.).
